Whole data set: some 81,000 sequences, median “one-hybrid fitness for binding parS DNA” near -0.17, cut for the highest 2% near 0.51. The list shows a part of the results.
B1: Caulobacter ParB omega fusion; a variant is named by its letters at X, in order, B8GW30 (parent)
chain: MESVVVGEPGMSEGRRGLGRGLSALLGEVDAAPAQAPGEQLGGSREAPIEILQRNPDQPRRTFREEDLEDLSNSIREKGVLQPILVRPSPDTAGEYQIVAGERAWRAAQRAGLKTVPIMVRELDDLAVLEIGIIENVQRADLNVLEEALSYKVLMEKFERTQENIAQTIGKSXSHVANXMRLLXLPDEVQSYLVSGELTAXHARAIAAAADPVALAKQIIEGGLSVRETEALARKAPNLSAGKSKGGRPPRVKDTDTQALESDLSSVLGLDVSIDHRGSTGTLTITYATLEQLDDLCNRLTRGI

Variants of: B1
Experiment: one-hybrid fitness for binding parS DNA (scaled: cognate 1, non-cognate 0); higher = stronger binding
Conditions: with parS DNA site
How it was run: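 Fitness is the rescaled log change in variant-to-wild-type read ratio, measured by Illumina sequencing of plasmids before and after bacterial one-hybrid selection. The scale puts cognate at 1 and non-cognate at 0. Selection of Caulobacter ParB libraries, four specificity codons randomised, took place in E. coli USO with a HIS3 reporter, site 19 bp from the promoter, over 48 hours at 37°C on M9-minus-histidine with 0.1 mM IPTG and 5 mM 3-AT.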

DVKL and FGEV cannot be ordered by “one-hybrid fitness for binding parS DNA” value: ≤ 0.2 for the first, ≤ 0.2 for the second.

PCHW and DANM cannot be ordered by “one-hybrid fitness for binding parS DNA” value: ≤ 0.2 for the first, ≤ 0.2 for the second.

Going from RNLA to LMND, the “one-hybrid fitness for binding parS DNA” value falls from 0.452 to ≤ 0.2.

LITF and HIHV cannot be ordered by “one-hybrid fitness for binding parS DNA” value: ≤ 0.2 for the first, ≤ 0.2 for the second.

VPMY and HDPR cannot be ordered by “one-hybrid fitness for binding parS DNA” value: ≤ 0.2 for the first, ≤ 0.2 for the second.

RGAW and DFEG cannot be ordered by “one-hybrid fitness for binding parS DNA” value: ≤ 0.2 for the first, ≤ 0.2 for the second.

CVFL and LSMM cannot be ordered by “one-hybrid fitness for binding parS DNA” value: ≤ 0.2 for the first, ≤ 0.2 for the second.

QMGT and MRIS cannot be ordered by “one-hybrid fitness for binding parS DNA” value: ≤ 0.2 for the first, ≤ 0.2 for the second.

ASRT and INLK cannot be ordered by “one-hybrid fitness for binding parS DNA” value: ≤ 0.2 for the first, ≤ 0.2 for the second.

VLCA and PQSL cannot be ordered by “one-hybrid fitness for binding parS DNA” value: ≤ 0.2 for the first, ≤ 0.2 for the second.

SSRT and SRGC cannot be ordered by “one-hybrid fitness for binding parS DNA” value: ≤ 0.2 for the first, ≤ 0.2 for the second.

QQEQ and KPHD cannot be ordered by “one-hybrid fitness for binding parS DNA” value: ≤ 0.2 for the first, ≤ 0.2 for the second.

CHAR and GKTS cannot be ordered by “one-hybrid fitness for binding parS DNA” value: ≤ 0.2 for the first, ≤ 0.2 for the second.

AHEN and FILG cannot be ordered by “one-hybrid fitness for binding parS DNA” value: ≤ 0.2 for the first, ≤ 0.2 for the second.

GDHM and PCTC cannot be ordered by “one-hybrid fitness for binding parS DNA” value: ≤ 0.2 for the first, ≤ 0.2 for the second.

QNRW and TSAQ cannot be ordered by “one-hybrid fitness for binding parS DNA” value: ≤ 0.2 for the first, ≤ 0.2 for the second.

PRDF and MVNG cannot be ordered by “one-hybrid fitness for binding parS DNA” value: ≤ 0.2 for the first, ≤ 0.2 for the second.

QTFS and LWSA cannot be ordered by “one-hybrid fitness for binding parS DNA” value: ≤ 0.2 for the first, ≤ 0.2 for the second.

RHID and RDEP cannot be ordered by “one-hybrid fitness for binding parS DNA” value: ≤ 0.2 for the first, ≤ 0.2 for the second.

QVHS and QSEC cannot be ordered by “one-hybrid fitness for binding parS DNA” value: ≤ 0.2 for the first, ≤ 0.2 for the second.

QIHT and VWLW cannot be ordered by “one-hybrid fitness for binding parS DNA” value: ≤ 0.2 for the first, ≤ 0.2 for the second.

Going from MVWR to RLEY, the “one-hybrid fitness for binding parS DNA” value rises from ≤ 0.2 to 0.458.

KLQE and KSHS cannot be ordered by “one-hybrid fitness for binding parS DNA” value: ≤ 0.2 for the first, ≤ 0.2 for the second.

YIHC and NGIR cannot be ordered by “one-hybrid fitness for binding parS DNA” value: ≤ 0.2 for the first, ≤ 0.2 for the second.

RKGE and QSYM cannot be ordered by “one-hybrid fitness for binding parS DNA” value: ≤ 0.2 for the first, ≤ 0.2 for the second.

IASF and FALE cannot be ordered by “one-hybrid fitness for binding parS DNA” value: ≤ 0.2 for the first, ≤ 0.2 for the second.

QPHM and CNRV cannot be ordered by “one-hybrid fitness for binding parS DNA” value: ≤ 0.2 for the first, ≤ 0.2 for the second.

QDAF and FDRN cannot be ordered by “one-hybrid fitness for binding parS DNA” value: ≤ 0.2 for the first, ≤ 0.2 for the second.

QNAS and YPPS cannot be ordered by “one-hybrid fitness for binding parS DNA” value: ≤ 0.2 for the first, ≤ 0.2 for the second.

YNPF and QWFE cannot be ordered by “one-hybrid fitness for binding parS DNA” value: ≤ 0.2 for the first, ≤ 0.2 for the second.

KSCA and LFTN cannot be ordered by “one-hybrid fitness for binding parS DNA” value: ≤ 0.2 for the first, ≤ 0.2 for the second.

RTSD and TMCS cannot be ordered by “one-hybrid fitness for binding parS DNA” value: ≤ 0.2 for the first, ≤ 0.2 for the second.

CRAP and FHAS cannot be ordered by “one-hybrid fitness for binding parS DNA” value: ≤ 0.2 for the first, ≤ 0.2 for the second.

AKHT and QHAF cannot be ordered by “one-hybrid fitness for binding parS DNA” value: ≤ 0.2 for the first, ≤ 0.2 for the second.

PRRC and HTWD cannot be ordered by “one-hybrid fitness for binding parS DNA” value: ≤ 0.2 for the first, ≤ 0.2 for the second.

NTMW and IITG cannot be ordered by “one-hybrid fitness for binding parS DNA” value: ≤ 0.2 for the first, ≤ 0.2 for the second.

VIHV and EYNK cannot be ordered by “one-hybrid fitness for binding parS DNA” value: ≤ 0.2 for the first, ≤ 0.2 for the second.

RWKQ and MWHT cannot be ordered by “one-hybrid fitness for binding parS DNA” value: ≤ 0.2 for the first, ≤ 0.2 for the second.

LWKT and YHNR cannot be ordered by “one-hybrid fitness for binding parS DNA” value: ≤ 0.2 for the first, ≤ 0.2 for the second.

QTPE and AIVT cannot be ordered by “one-hybrid fitness for binding parS DNA” value: ≤ 0.2 for the first, ≤ 0.2 for the second.

PMCD and ILRN cannot be ordered by “one-hybrid fitness for binding parS DNA” value: ≤ 0.2 for the first, ≤ 0.2 for the second.

AFHS and PQTC cannot be ordered by “one-hybrid fitness for binding parS DNA” value: ≤ 0.2 for the first, ≤ 0.2 for the second.

PMSL and LKMD cannot be ordered by “one-hybrid fitness for binding parS DNA” value: ≤ 0.2 for the first, ≤ 0.2 for the second.

KDSC and RNDF cannot be ordered by “one-hybrid fitness for binding parS DNA” value: ≤ 0.2 for the first, ≤ 0.2 for the second.

TGVC and SRNH cannot be ordered by “one-hybrid fitness for binding parS DNA” value: ≤ 0.2 for the first, ≤ 0.2 for the second.

SLIM and KTWG cannot be ordered by “one-hybrid fitness for binding parS DNA” value: ≤ 0.2 for the first, ≤ 0.2 for the second.

Compared with ILQI, FQCS is higher in “one-hybrid fitness for binding parS DNA” value: ≤ 0.2 for the first, 0.223 for the second.

NGAT and SHFF cannot be ordered by “one-hybrid fitness for binding parS DNA” value: ≤ 0.2 for the first, ≤ 0.2 for the second.

WNEG and WRNE cannot be ordered by “one-hybrid fitness for binding parS DNA” value: ≤ 0.2 for the first, ≤ 0.2 for the second.

LCNK and ATRH cannot be ordered by “one-hybrid fitness for binding parS DNA” value: ≤ 0.2 for the first, ≤ 0.2 for the second.

NPEL and GHRN cannot be ordered by “one-hybrid fitness for binding parS DNA” value: ≤ 0.2 for the first, ≤ 0.2 for the second.

AECP and RERY cannot be ordered by “one-hybrid fitness for binding parS DNA” value: ≤ 0.2 for the first, ≤ 0.2 for the second.

YNSW and KMTV cannot be ordered by “one-hybrid fitness for binding parS DNA” value: ≤ 0.2 for the first, ≤ 0.2 for the second.

GSHW and ENVS cannot be ordered by “one-hybrid fitness for binding parS DNA” value: ≤ 0.2 for the first, ≤ 0.2 for the second.

HISW and HLND cannot be ordered by “one-hybrid fitness for binding parS DNA” value: ≤ 0.2 for the first, ≤ 0.2 for the second.

LLLL and PYAI cannot be ordered by “one-hybrid fitness for binding parS DNA” value: ≤ 0.2 for the first, ≤ 0.2 for the second.

VWHG and MPSP cannot be ordered by “one-hybrid fitness for binding parS DNA” value: ≤ 0.2 for the first, ≤ 0.2 for the second.

LLSN and GKGG cannot be ordered by “one-hybrid fitness for binding parS DNA” value: ≤ 0.2 for the first, ≤ 0.2 for the second.

KGQS and DVGC cannot be ordered by “one-hybrid fitness for binding parS DNA” value: ≤ 0.2 for the first, ≤ 0.2 for the second.

First: LHIS
Second: RLNG
The “one-hybrid fitness for binding parS DNA” value of the first is lower: ≤ 0.2 for the first, 1.01 for the second.

QCAP and NIDR cannot be ordered by “one-hybrid fitness for binding parS DNA” value: ≤ 0.2 for the first, ≤ 0.2 for the second.

QCYK and CHRR cannot be ordered by “one-hybrid fitness for binding parS DNA” value: ≤ 0.2 for the first, ≤ 0.2 for the second.

ANEG and CGNT cannot be ordered by “one-hybrid fitness for binding parS DNA” value: ≤ 0.2 for the first, ≤ 0.2 for the second.

Compared with SQCM, RMCM is higher in “one-hybrid fitness for binding parS DNA” value: ≤ 0.2 for the first, 0.362 for the second.

NCRF and WHDC cannot be ordered by “one-hybrid fitness for binding parS DNA” value: ≤ 0.2 for the first, ≤ 0.2 for the second.

QHHD and TISD cannot be ordered by “one-hybrid fitness for binding parS DNA” value: ≤ 0.2 for the first, ≤ 0.2 for the second.

HDDY and ILLT cannot be ordered by “one-hybrid fitness for binding parS DNA” value: ≤ 0.2 for the first, ≤ 0.2 for the second.

TLTV and LWLG cannot be ordered by “one-hybrid fitness for binding parS DNA” value: ≤ 0.2 for the first, ≤ 0.2 for the second.

AVDN and TRRH cannot be ordered by “one-hybrid fitness for binding parS DNA” value: ≤ 0.2 for the first, ≤ 0.2 for the second.

GLTG and CSAL cannot be ordered by “one-hybrid fitness for binding parS DNA” value: ≤ 0.2 for the first, ≤ 0.2 for the second.

TRFG and TPDR cannot be ordered by “one-hybrid fitness for binding parS DNA” value: ≤ 0.2 for the first, ≤ 0.2 for the second.

Going from RHKT to MLMI, the “one-hybrid fitness for binding parS DNA” value falls from 0.745 to ≤ 0.2.

QTGH and WVTR cannot be ordered by “one-hybrid fitness for binding parS DNA” value: ≤ 0.2 for the first, ≤ 0.2 for the second.

RKTW and AMSW cannot be ordered by “one-hybrid fitness for binding parS DNA” value: ≤ 0.2 for the first, ≤ 0.2 for the second.

QNHM and PMLC cannot be ordered by “one-hybrid fitness for binding parS DNA” value: ≤ 0.2 for the first, ≤ 0.2 for the second.

VLMT and CPHL cannot be ordered by “one-hybrid fitness for binding parS DNA” value: ≤ 0.2 for the first, ≤ 0.2 for the second.

In the case of GASG, the “one-hybrid fitness for binding parS DNA” value is reported as ≤ 0.2.
